According to publication PMC6345584:
Residue numbers refer to the chain shown, from its start. Results are given in words; binding and its absence hold for the method and conditions named. Binding seen in cells or lysates may run through a third protein. Some binding calls cover weakened binding; strength is not graded here. For some assays here: Tags and fused reporters may be left off the sequences shown.

Sequences of proteins named here, by UniProt entry; tags and fusion partners are left off.
UniProt Q96AC1: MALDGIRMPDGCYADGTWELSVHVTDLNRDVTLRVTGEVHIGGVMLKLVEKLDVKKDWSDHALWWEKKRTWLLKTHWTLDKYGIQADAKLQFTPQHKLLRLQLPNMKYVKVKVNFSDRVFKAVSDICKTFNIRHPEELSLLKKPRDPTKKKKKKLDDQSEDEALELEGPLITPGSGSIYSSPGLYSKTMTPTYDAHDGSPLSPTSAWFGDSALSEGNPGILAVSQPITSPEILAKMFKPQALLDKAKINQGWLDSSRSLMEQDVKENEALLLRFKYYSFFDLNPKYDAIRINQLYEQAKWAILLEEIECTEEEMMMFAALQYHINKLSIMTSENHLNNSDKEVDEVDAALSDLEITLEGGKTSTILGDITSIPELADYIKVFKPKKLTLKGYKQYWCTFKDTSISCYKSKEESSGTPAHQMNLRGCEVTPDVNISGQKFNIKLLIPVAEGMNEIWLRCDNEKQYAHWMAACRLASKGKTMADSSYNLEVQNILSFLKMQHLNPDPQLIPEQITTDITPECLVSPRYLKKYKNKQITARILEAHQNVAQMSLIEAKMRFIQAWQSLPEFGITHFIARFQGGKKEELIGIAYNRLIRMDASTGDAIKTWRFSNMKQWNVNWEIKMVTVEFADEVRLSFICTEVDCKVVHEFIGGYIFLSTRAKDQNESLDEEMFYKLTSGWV

T1: Full-length GST-kindlin-1 (UniProt Q9BQL6)
T1 sequence: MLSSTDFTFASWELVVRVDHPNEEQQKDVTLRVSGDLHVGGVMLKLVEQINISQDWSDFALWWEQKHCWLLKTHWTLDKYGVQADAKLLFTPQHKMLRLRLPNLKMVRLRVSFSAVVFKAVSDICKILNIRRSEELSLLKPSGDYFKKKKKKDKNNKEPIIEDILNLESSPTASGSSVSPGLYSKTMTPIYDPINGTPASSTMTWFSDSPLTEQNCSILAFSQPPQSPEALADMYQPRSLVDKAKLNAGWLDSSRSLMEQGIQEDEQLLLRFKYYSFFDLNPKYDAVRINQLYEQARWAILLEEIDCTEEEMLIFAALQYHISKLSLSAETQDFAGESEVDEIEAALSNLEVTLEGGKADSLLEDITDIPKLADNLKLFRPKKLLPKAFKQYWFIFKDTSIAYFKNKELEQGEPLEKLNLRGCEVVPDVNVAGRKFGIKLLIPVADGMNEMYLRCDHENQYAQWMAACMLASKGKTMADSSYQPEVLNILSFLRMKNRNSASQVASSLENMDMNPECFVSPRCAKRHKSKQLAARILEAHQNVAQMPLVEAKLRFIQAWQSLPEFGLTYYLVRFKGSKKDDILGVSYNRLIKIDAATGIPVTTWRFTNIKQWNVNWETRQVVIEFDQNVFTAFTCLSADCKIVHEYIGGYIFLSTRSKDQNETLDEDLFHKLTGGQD

B1: mCherry-kindlin-1 (protein, UniProt Q9BQL6 1-677)
chain: T1 sequence
B2: mCherry-W612Akindlin-1 (protein, UniProt Q9BQL6 1-677)
chain: T1 sequence with W612A

How the values were obtained:
[1] = target: epidermal growth factor receptor (endogenous, human keratinocytes) (human (endogenous in keratinocytes)) (UniProt P00533); assay: co-IP; IP of endogenous EGFR from KS cells re-expressing mCherry-kindlin-1, starved or after EGF stimulation (10 ng/ml) over time
[2] = target: T1, Full-length GST-kindlin-1; assay: pull-down; GST-kindlin-1 full length or domains on glutathione Sepharose beads, endogenous EGFR from WT keratinocyte lysate, immunoblot for EGFR; only the target purified
[3] = target: EGFR-GFP (UniProt P00533); assay: FRET or BRET; FRET by fluorescence lifetime imaging microscopy in fixed KS keratinocytes expressing EGFR-GFP (donor) and mCherry-kindlin-1 (acceptor), with or without EGF stimulation

| Molecule | binding [1] | binding [2] | binding [3] |
| --- | --- | --- | --- |
| kindlin-2 (endogenous, KS keratinocytes) (from UniProt Q96AC1 1-680) | no binding | – | – |
| epidermal growth factor receptor (endogenous, human keratinocytes) (from UniProt P00533 25-1210) | – | binds | – |
| B1 | binds | – | binds |
| B2 | – | – | binds |
